Results from ChEMBL document CHEMBL4888484, “Replenishing the malaria drug discovery pipeline: Screening and hit evaluation of the MMV Hit Generation Library 1 (HGL1) against asexual blood stage Plasmodium falciparum ,using a nano luciferase reporter read-out” (2022).
The campaign covered roughly 150,000 compounds. About 540 (0.36%) showed an effect of 50% or more. Some of the results follow.

tested on: Plasmodium falciparum; assay: Primary screen in NF54 nanoGlo assay, in single point, at 2uM, 72h; a lower Z score goes with more inhibition; type: functional, Erythrocyte; details: timepoint 72 hour

SMILES | % Inhibition [%] | Z score
c1ccc(COc2ccc(CN3CC(c4nc(C5CC5)no4)C3)cc2)cc1 | -17 | 3.18
COCCn1ccc(N[C@H]2CC(C)(C)OC2(C)C)n1 | -4 | 0.48
Cc1nsc(N2CC[C@@H]3CCCC[C@@H]32)n1 | -6 | 0.97
c1ccc(-c2nccn2[C@H]2CCc3ccccc3C2)nc1 | -3 | 0.53
Cc1ccc([C@@H]2Cn3nnc(-c4nc(-c5ccc(F)c(F)c5)no4)c3CO2)c(C)c1 | -14 | 1.29
O=C(Cn1cc(C(F)(F)F)ccc1=O)Nc1cccc2ccccc12 | -9 | 1.54
Cn1c(=O)[nH]c(=O)c2cc(S(=O)(=O)N3CCN4CCOc5cccc3c54)cnc21 | -1 | 0.11
C[C@H](NCC(=O)Nc1ccc(C#N)cc1)c1ncn(C)n1 | -9 | 1.01
CCc1noc(C)c1NC(=O)N(C)Cc1nccs1 | -4 | 0.58
CC(N[C@H](CO)Cc1ccccc1)C(C)(C)O (stereo partly drawn) | -6 | 1.14
Cc1ccc(O[C@H]2COCC[C@H]2NC(=O)c2ccncc2F)cn1 | -10 | 1.07
O=C(c1ccoc1)N1CCC2(CC1)C[C@@H](Cc1nc(-c3ccncc3)no1)CCO2 | -7 | 0.9
CO[C@H]1CCCN(Cc2cc3cc(F)ccc3[nH]2)C1 | 3 | -0.44
CC(C)NC(=O)N1C[C@@H](F)C[C@H]1CO | -9 | 0.86
CCCS(=O)(=O)N1CCN(c2nc(C3CC3)nc(CC)c2Cc2cccc(Cl)c2)CC1 | -20 | 1.88
COc1ccc(-c2c3c(C)nn(-c4ccccc4)c3nc3[nH]c(=O)[nH]c(=O)c23)cc1O | -10 | 1.25
Cc1ccc2c(c1)CCCN2C(=O)c1ccc(N2CCOCC2)nn1 | -14 | 1.85
Cc1nc(Oc2cccc(NC(=O)c3ccccc3)c2)c(C#N)c(C)c1Cl | -5 | 0.7
Nc1ccc2c(N3CCc4ccc(F)cc4C3)ncnc2n1 | -13 | 1.99
COCCC(CO)NC(=O)C1CCC=CN1C(=O)OC(C)(C)C (stereo not drawn) | -7 | 1.19
Cc1ccc(NC(=O)NCc2ccc3c(c2)N(C(=O)c2ccccc2)[C@@H](C)C3)cc1C | 16 | -1.85
CNS(=O)(=O)CCNC(=O)c1ccccc1 | -5 | 0.55
Cc1nc(N2CCC(C)CC2)ncc1-c1cc(=O)[nH]c(N2CCOCC2)n1 | -9 | 1.3
Cc1noc(NC(=O)c2cccn2C)c1-c1ccccc1 | -16 | 3.03
CC[C@H]1CCCCN1C(=O)Cn1cc(CN2CCC(O)CC2)nn1 | -8 | 1.09
O=C(C[C@H]1CCOC1)N1CCC(OCc2ccccn2)CC1 | -6 | 0.87
O[C@H]1CN(Cc2nnc(-c3ccccc3)o2)CCN(C2CCCC2)C1 | 12 | -1.64

SMILES | % Inhibition [%] | Z score
Cc1cc(C)nc(-n2nc(C)c3c2N(Cc2ccc(F)cc2)C(=O)C[C@@H]3c2ccc(Cl)cc2)n1 | -16 | 2.27
O=C(NCc1ccc(C(=O)Nc2cccnc2)cc1)c1cc(O)c2ccccc2c1 | -11 | 1.31
CC(C)OCCCCNC(=O)N1C[C@@H](C)O[C@@H](C)C1 | -2 | 0.26
Cn1nc(-c2ccccc2)c2[nH]c(-c3ccsc3)nc21 | 0 | -0.06
Clc1ccc(-c2cn3c4ccccc4n(CCN4CCOCC4)c3n2)cc1Cl | -18 | 1.61
O=C1CCN(S(=O)(=O)c2ccc3c(c2)OCCO3)CCCCCCN1 | 4 | -0.48
CC(C)(C)OC(=O)N/N=C(\Cc1ccccc1)NC1CCCC1 | 0 | 0
Cc1ccc(C(=O)Nc2ncc(Cc3ccc(F)c(F)c3F)s2)cn1 | 3 | -0.56
CN1CCC(C(=O)Nc2nc3c(s2)C[C@@H](NC(=O)OC(C)(C)C)CC3)CC1=O (stereo partly drawn) | -12 | 1.42
C[C@@H]1CN(C(=O)Nc2cnns2)C[C@H](C)O1 | 3 | -0.4
CCN1CCC(CNC(=O)c2ccc3[nH]c4c(c3c2)CCCC4)CC1 | -3 | 0.33
CC(C)[C@@H](O)CN1CCn2c(Cc3ccccc3F)nnc2C1 | 3 | -0.49
COc1ccccc1CNC[C@H]1CCCc2ccc(C(=O)O)cc21 | -2 | 0.43
O=C1CC[C@@H]2CN(c3ccnc4ccccc34)CC[C@@H]2N1CCCCO | 4 | -0.73
COc1ccc(S(=O)(=O)N2CC(S(=O)(=O)Cc3ccco3)C2)cc1Cl | -18 | 2.26
O=S(=O)(Cc1ccccc1)NCC1CCN(c2ncccn2)CC1 | -2 | 0.39
COc1ccnc(NC(=O)Cc2cccs2)c1 | 5 | -0.55
CCc1noc(C)c1CN1CCOc2ccccc2[C@@H]1C(=O)O | 5 | -0.92
COc1ccccc1NC(=O)OCC#CCOC(=O)Nc1ccccc1OC | -2 | 0.32
CC12CCN(c3ncccn3)CC1C2(F)F (stereo not drawn) | 1 | -0.28
Cc1nnc(N2CCN(Cc3cnc(-c4ccccc4)o3)CC2)n1C | -3 | 0.44
Cc1oncc1CNS(=O)(=O)c1c2c(nn1C)CCCC2 | -5 | 0.8
COc1ccc(CNC(=O)c2cc(-c3ccc(OC)cc3)ns2)cc1 | -5 | 0.65
O=C(NC1CCCCC1)N[C@H]1[C@H](O)[C@@H](N2CCN(c3ccccc3)CC2)[C@@H]2OC[C@H]1O2 | 8 | -0.94
Cc1c(C(=O)N2CCN(c3ccccc3F)C[C@@H]2C)cnn1C1CCCC1 | -1 | 0.1
c1ccc2c(CNCCc3c[nH]c4ccccc34)c3ccccc3cc2c1 | 6 | -0.71
CCc1ccc(S(=O)(=O)c2c(C(=O)N3CCCC3)cnc3ccc(C)cc23)cc1 | -6 | 1.08
